Results from PubChem BioAssay AID894 (National Center for Advancing Translational Sciences (NCATS), 2007).
Screen size: about 150,000 compounds; about 6,500 (4.3%) were called active. The shares of active, inactive and inconclusive entries below differ from those in the screen. Calls come from the whole dose curve; as a rule, active = well fitted inhibition curve with a large enough effect (not every such curve was filed as active); inconclusive = small, poorly fitted or top-dose-only effect, or another doubt; inactive = no such curve, though single readings can be large or run the other way. Potencies of inconclusive entries are left out as doubtful fits.

biological target: 15-hydroxyprostaglandin dehydrogenase [NAD(+)] (Homo sapiens) (UniProt P15428); test: qHTS Assay for Inhibitors of HPGD (15-Hydroxyprostaglandin Dehydrogenase); conditions: purified HPGD, NADH fluorescence kinetic, PGE2 substrate; activity change, negative = inhibition: hits give low values
Summary of the method: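 NADH formation kinetics: reaction with 30 uM PGE2 and 1 mM NAD+ (final), 20 nM enzyme, Tris-HCl pH 8 with Tween 20, after 15 min compound preincubation at room temperature. Fluorescence change, last versus first of five reads.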
% is set by controls: 0 for no effect and ±100 for the full control effect; potency is the fitted concentration of half-maximal effect; tags give direction and shape of the fitted curve.

Chain of UniProt P15428 (P15428 whole entry, looked up): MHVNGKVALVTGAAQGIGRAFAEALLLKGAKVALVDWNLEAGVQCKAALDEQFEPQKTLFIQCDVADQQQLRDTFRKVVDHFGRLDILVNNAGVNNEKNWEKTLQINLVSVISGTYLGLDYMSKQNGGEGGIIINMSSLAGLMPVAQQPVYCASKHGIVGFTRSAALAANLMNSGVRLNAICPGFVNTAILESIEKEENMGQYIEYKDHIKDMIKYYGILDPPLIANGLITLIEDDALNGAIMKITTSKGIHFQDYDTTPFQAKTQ

Compound	Potency	activity change, negative = inhibition
C=CCNc1ncnc2c1cnn2-c1cccc(C)c1	inconclusive [inhibitor, partial curve]	
O=C(CCc1ccc(O)cc1)c1c(O)cc(O)cc1O[C@H]1OC(CO)C(O)C(O)C1O (some centres not stated)	active: 25.1 µM	
Cc1nnc(SCc2ccc(C(=O)Nc3cc(Cl)ccc3C)cc2)s1	inconclusive [inhibitor, partial curve]	
CCOC(=O)C1=C(C)OC(N)=C(C#N)C1c1cncc(-c2ccc(F)cc2)c1 (configuration not stated)		inactive: -9.79%
CCOc1cc(CNc2ccc3[nH]c(=O)[nH]c3c2)ccc1OCC(=O)NC(C)(C)C	inconclusive [inhibitor, single point]	
COc1ccc(N(C(=O)c2ccco2)S(=O)(=O)c2ccc(F)cc2)cc1	active: 28.2 µM	
Cc1ccc2c(n1)sc1c(N)ncnc12	inconclusive [inhibitor, partial curve]	
COc1ccc(OC)c2sc(NC(=O)C3=COCCO3)nc12	inconclusive [inhibitor, partial curve]	
Cc1ccc(-c2nn(CC(=O)Nc3ccc4c(c3)nc3n4CCOC3)c(=O)c3ccccc23)cc1	inconclusive [inhibitor, single point]	
CCOc1ccc(OCC)c(NC(=O)c2[nH]c(C)c(C(C)=O)c2C)c1	inconclusive [inhibitor, partial curve]	
O=C(Nc1cccn(Cc2ccc(F)cc2)c1=O)NC1CCCCC1		inactive: -19.2%
Cc1c(C(=O)O)sc2ncn(C)c(=O)c12	inconclusive [inhibitor, single point]	
CC(C)c1nnc(NC(=O)CCC(=O)N2CCN(c3ccccn3)CC2)s1	inconclusive [inhibitor, full curve]	
O=C(O)c1cc(S(=O)(=O)Nc2cccc(F)c2)ccc1Cl		inactive: -10.2%
Cc1ccc(CN=c2c([N+](=O)[O-])nn(-c3ccc4c(c3)OCCO4)n2O)cc1	inconclusive [inhibitor, single point]	
O=C(O)CCc1ccc(-c2ccccc2)n1CC(=O)O	inconclusive [inhibitor, single point]	
O=C(C1CCCN(Cc2ccccc2)C1)N1CCCCC1 (configuration not stated)	active: 28.2 µM	
COc1ccc(OC)c(NC(=O)C(=O)N/N=C/c2ccccc2[N+](=O)[O-])c1		inactive: -5.95%
CC12CCC(C(=O)N(NC(=O)c3ccccc3O)C1=O)C2(C)C (configuration not stated)	inconclusive [inhibitor, partial curve]	
Cc1noc(C)c1C(=O)N1CCC[C@@]2(CCN(c3ccccn3)C2)C1		inactive: -15.8%
Cc1cccc(NC(=O)CCS(=O)(=O)c2cccc3nsnc23)c1C	inconclusive [inhibitor, partial curve, poor fit]	
CCC(C)(C)NC(=O)c1cc(OC)c(OC)cc1[N+](=O)[O-]		inactive: -11.5%
Brc1cccc(CNCc2cccs2)c1		inactive: -11%
CCOC(=O)CN1C=C(c2ccc3ccccc3n2)C(C[N+](=O)[O-])c2ccccc21 (configuration not stated)		inactive: 0.497%

Compound	Potency	activity change, negative = inhibition
O=C(N/N=C/c1ccc2c(c1)OCO2)c1cc(-c2ccncc2)nc2ccccc12	active: 28.2 µM	
CCn1c(SCc2ccc(C)cc2)nnc1C1CCN(S(=O)(=O)c2ccc(OC)cc2)CC1		inactive: -8.06%
CCOC(=O)COc1c(OC)cc(Cl)cc1C1Nc2ccccc2C(=O)N1c1cccc(C)c1 (configuration not stated)	inconclusive [inhibitor, partial curve]	
Clc1ccc(OCCSCc2nc3ccccc3[nH]2)cc1	inconclusive [inhibitor, partial curve]	
COc1ccccc1OCc1nnc(SCCN2CCOCC2)o1	inconclusive [inhibitor, single point]	
CC(C)Oc1ccc(C(=O)NCc2cccs2)cc1	inconclusive [inhibitor, single point]	
O=C(CSc1nnc(COc2cccc3ccccc23)o1)N1CCN(C(=O)c2ccco2)CC1		inactive: -9.16%
CCc1c(C)sc(NC(=O)c2cc(C)on2)c1C#N		inactive: -16.1%
COc1ccc2nc(N3C(=O)/C(=C/c4ccccc4)NC3=S)sc2c1	inconclusive [inhibitor, full curve]	
C/C=C(\C)C(=O)OC1C(OC(=O)C2(C)OC2C)c2cc3ccc(=O)oc3cc2OC1(C)C (configuration not stated)	inconclusive [inhibitor, partial curve]	
Cc1c(Cc2ccccc2)sc(N)c1C(N)=O	active: 28.2 µM	
CCC(=O)c1ccc(O)c(CC=C(C)C)c1	inconclusive [inhibitor, single point]	
CCN1CCN(c2ncc(C(=O)Nc3ccccc3C(=O)OC)c3ccccc23)CC1		inactive: -22.2%
COc1ccccc1CCNC(=O)c1ccc(C)o1	active: 8.91 µM	
c1ccc(-c2cn3c(n2)-c2ccccc2C3)cc1	inconclusive [inhibitor, partial curve]	
COc1cc2c(C(=O)O)c(C)n(CC(C)C)c2c2ccccc12	inconclusive [inhibitor, partial curve]	
CCOC(=O)CSc1nc(-c2ccccc2)nc2c1oc1ccccc12		inactive: -8.29%
COc1ccccc1-c1nc(C(N)=O)c2[nH]c(=O)n(-c3cccc(C)c3)c2n1	inconclusive [inhibitor, partial curve]	
O=C(O)CCc1nc(-c2ccccc2)c(-c2ccccc2)o1	inconclusive [inhibitor, partial curve]	
CCOC(=O)N1CCC(NC(=O)CSCc2nc(-c3ccc(OC)c(OC)c3)oc2C)CC1	inconclusive [inhibitor, single point]	
c1ccc(OCc2nn3c(Cn4cnc5ccccc54)nnc3s2)cc1	active: 11.2 µM	
Cc1ccc(N(Cc2ccc([N+](=O)[O-])cc2)C(=O)c2ccco2)cc1C		inactive: -2.13%
CO/N=C/NC(=O)c1cn(-c2ccc(F)cc2)c(=O)c2ccccc12	inconclusive [inhibitor, partial curve]	
Oc1ccc(C=Nc2ccc3ncccc3c2)c(O)c1	inconclusive [inhibitor, partial curve]	

Compound	Potency	activity change, negative = inhibition
CC1CN(S(=O)(=O)c2ccc(C(=O)Nc3nnc(-c4ccc5c(c4)CCCC5)o3)cc2)CC(C)O1 (configuration not stated)		inactive: -15.9%
COc1cccc(Nc2ncc3nc(CCc4ccccc4)c(=O)n(C4CC4)c3n2)c1		inactive: -5.19%
Cc1ccc(C=Nc2ccccc2C(N)=O)o1	inconclusive [inhibitor, partial curve]	
COC(=O)[C@@H]1C[C@H]1[C@@H](NC(=O)c1cc(C)nn1C)c1ccccc1		inactive: -12.7%
CCc1cc(=O)oc2cc(OCC=C(C)C)ccc12	inconclusive [inhibitor, partial curve]	
CCOc1cc(/C=N/NC(=O)CN2CCOCC2)ccc1OCc1ccccc1		inactive: -18.5%
COc1ccc(NC(=O)Cc2ccc(Cl)cc2)cc1NC(=O)c1ccco1	inconclusive [inhibitor, partial curve]	
CCNC(=S)NN(c1ccccc1)c1ccccc1		inactive: -15.9%
Nc1c(C(=O)NCCN2CCOCC2)c2nc3ccccc3nc2n1CCc1ccccc1F	inconclusive [inhibitor, partial curve]	
O=C(CSc1nccc(=O)[nH]1)Nc1ccc(F)c(Cl)c1		inactive: -25.4%
N#C/C(=C\c1ccc(F)c(F)c1)C(=O)NC1CCCCC1		inactive: 0.0275%
COc1ccccc1NC(=O)CSc1nc2ccccc2n1C(C)=O	active: 15.8 µM	
c1csc(Cc2nn3c(-c4n[nH]c5c4CCC5)nnc3s2)c1	inconclusive [inhibitor, partial curve, poor fit]	
COc1cc2[nH]c(=O)n(CCCCCC(=O)N3CCN(c4ccccn4)CC3)c(=O)c2cc1OC	inconclusive [inhibitor, partial curve]	
CC(C)c1nnc(NC(=O)c2ccc(S(=O)(=O)N3CCOCC3)cc2)s1	inconclusive [inhibitor, partial curve]	
COc1ccc2c(COC(=O)CC3Sc4ccccc4NC3=O)cc(=O)oc2c1 (configuration not stated)	inconclusive [inhibitor, partial curve]	
CC(=O)N1c2ccccc2C(=O)OC1c1cccnc1 (configuration not stated)	inconclusive [inhibitor, partial curve]	
CN(C(=O)c1ccccc1Cl)c1ccccc1		inactive: -13.5%
CNc1nc(Sc2ccc(C)cc2)cc(C(F)(F)F)n1	inconclusive [inhibitor, single point]	
CCc1ccccc1-n1c(SCC(=O)N2CCCC2)nnc1-c1ccccn1	inconclusive [inhibitor, single point]	
COc1cc2c(cc1OC)-c1cc(OCCN3CCOCC3)nc(=O)n1CC2	inconclusive [inhibitor, partial curve]	
O=C(OCCCCN1C(=O)c2ccccc2C1=O)c1n[nH]c2ccccc12	active: 31.6 µM	
C[C@@H](CN(C)C[C@H]1C(=O)O[C@@H]2C[C@@]3(C)CCC[C@]4(CO4)C3CC21)[C@H](O)c1ccccc1 (some centres not stated)		inactive: -2.14%
Cc1ccc(-n2c(N)c(C(=O)NCc3cccnc3)sc2=S)cc1	active: 25.1 µM	
